Among the data in PMC10700546, “Atg18 oligomer organization in assembled tubes and on lipid membrane scaffolds” (Nature Communications, 2023) are binding values, retold here.

Assay [1] addresses T1, Autophagy-related protein 18 (Atg18), wildtype (Saccharomyces cerevisiae), P43601.
T1 chain: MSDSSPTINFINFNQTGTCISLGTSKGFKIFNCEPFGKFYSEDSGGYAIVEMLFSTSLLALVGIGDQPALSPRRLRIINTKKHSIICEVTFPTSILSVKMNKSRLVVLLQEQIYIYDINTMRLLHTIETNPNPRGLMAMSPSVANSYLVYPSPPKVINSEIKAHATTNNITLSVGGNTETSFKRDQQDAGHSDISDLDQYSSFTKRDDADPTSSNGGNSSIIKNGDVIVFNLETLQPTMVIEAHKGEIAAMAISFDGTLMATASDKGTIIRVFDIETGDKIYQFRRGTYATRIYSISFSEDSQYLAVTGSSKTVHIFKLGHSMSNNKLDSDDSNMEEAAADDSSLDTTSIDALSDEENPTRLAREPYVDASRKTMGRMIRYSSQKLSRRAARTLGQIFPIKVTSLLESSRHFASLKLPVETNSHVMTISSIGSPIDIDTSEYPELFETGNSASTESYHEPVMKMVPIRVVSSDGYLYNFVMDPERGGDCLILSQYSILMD
Nature of the assay: cryo-EM structure; cryo-electron tomography and subtomogram averaging (26 A); 3 uM Atg18-WT with LUVs (5% PI3,5P2, 95% DOPC) at 0.1 mg/ml; Atg18 dimers between two bilayers; both purified. The following applies: remark: other sources report otherwise.

Assay [2] has as its target T1, Autophagy-related protein 18 (Atg18), …. Nature of the assay: negative stain EM; Atg18 dialysed into low-salt tube buffer, tubes or pellet fractions imaged after 2% uranyl acetate staining; self-assembly into tubes; both purified. The following applies: remark: other sources report otherwise.
Assay [3] shares this target. Nature of the assay: co-sedimentation; pelletation assay: 100 uM Atg18 dialysed into tube buffer (20 mM HEPES, 100 mM KAc, 1 mM DTT, pH 7.2), 120 min at 50,000 x g, 18 C; input, supernatant and pellet on SDS-PAGE; self-assembly into tubes; both purified. The following applies: remark: other sources report otherwise.
Assay [4] shares this target. Description: cryo-EM structure; helical reconstruction of Atg18 tubes; 20 uM tube solution in tube buffer (20 mM HEPES, 100 mM KAc, 1 mM DTT, pH 7.2); self-assembly into a helical lattice; both purified. The following applies: remark: other sources report otherwise.
In assay [5] the target is Atg18-FGGG (Saccharomyces cerevisiae) (UniProt P43601). Nature of the assay: co-sedimentation; pelletation assay: 100 uM Atg18 dialysed into tube buffer (20 mM HEPES, 100 mM KAc, 1 mM DTT, pH 7.2), 120 min at 50,000 x g, 18 C; input, supernatant and pellet on SDS-PAGE; self-assembly into tubes; both purified.
Assay [6] has the same target. Nature of the assay: negative stain EM; Atg18 dialysed into low-salt tube buffer, tubes or pellet fractions imaged after 2% uranyl acetate staining; self-assembly into tubes; both purified.
For assay [7], the target named is Autophagy-related protein 18 (Atg18), wildtype (Saccharomyces cerevisiae) (UniProt P43601). Nature of the assay: condition: only with 4x molar excess of diC8-PI3P, diC8-PI(3,5)P2 or diC8-PI(4,5)P2 added before the low-salt buffer change; negative stain EM; Atg18-WT with soluble diC8-PI3P, diC8-PI(3,5)P2 or diC8-PI(4,5)P2 in 4x molar excess, added in gel filtration buffer before dialysis into low-salt tube buffer; both purified.

Results are given in words; binding and its absence hold for the method and conditions named. Some binding calls cover weakened binding; strength is not graded here. For some of these results: Where a sequence is shown, tags or fusion partners need not be part of it.

B1: Autophagy-related protein 18 (Atg18), wildtype, P43601 1-500 (natural protein)
chain: MSDSSPTINFINFNQTGTCISLGTSKGFKIFNCEPFGKFYSEDSGGYAIVEMLFSTSLLALVGIGDQPALSPRRLRIINTKKHSIICEVTFPTSILSVKMNKSRLVVLLQEQIYIYDINTMRLLHTIETNPNPRGLMAMSPSVANSYLVYPSPPKVINSEIKAHATTNNITLSVGGNTETSFKRDQQDAGHSDISDLDQYSSFTKRDDADPTSSNGGNSSIIKNGDVIVFNLETLQPTMVIEAHKGEIAAMAISFDGTLMATASDKGTIIRVFDIETGDKIYQFRRGTYATRIYSISFSEDSQYLAVTGSSKTVHIFKLGHSMSNNKLDSDDSNMEEAAADDSSLDTTSIDALSDEENPTRLAREPYVDASRKTMGRMIRYSSQKLSRRAARTLGQIFPIKVTSLLESSRHFASLKLPVETNSHVMTISSIGSPIDIDTSEYPELFETGNSASTESYHEPVMKMVPIRVVSSDGYLYNFVMDPERGGDCLILSQYSILMD
B1: the binding entry in assay [1], in assay [2], in assay [3] and in assay [4] was “binds” in each case.

B2: Atg18-FGGG (protein, UniProt P43601 1-500)
chain: MSDSSPTINFINFNQTGTCISLGTSKGFKIFNCEPFGKFYSEDSGGYAIVEMLFSTSLLALVGIGDQPALSPRRLRIINTKKHSIICEVTFPTSILSVKMNKSRLVVLLQEQIYIYDINTMRLLHTIETNPNPRGLMAMSPSVANSYLVYPSPPKVINSEIKAHATTNNITLSVGGNTETSFKRDQQDAGHSDISDLDQYSSFTKRDDADPTSSNGGNSSIIKNGDVIVFNLETLQPTMVIEAHKGEIAAMAISFDGTLMATASDKGTIIRVFDIETGDKIYQFGGGTYATRIYSISFSEDSQYLAVTGSSKTVHIFKLGHSMSNNKLDSDDSNMEEAAADDSSLDTTSIDALSDEENPTRLAREPYVDASRKTMGRMIRYSSQKLSRRAARTLGQIFPIKVTSLLESSRHFASLKLPVETNSHVMTISSIGSPIDIDTSEYPELFETGNSASTESYHEPVMKMVPIRVVSSDGYLYNFVMDPERGGDCLILSQYSILMD
Consider B2, for which the binding result is “no binding (tested: 100 µM)” in assay [5] and “no binding” in assay [6].

B3: Autophagy-related protein 18 (Atg18), wildtype (protein, UniProt P43601 1-500)
chain: MSDSSPTINFINFNQTGTCISLGTSKGFKIFNCEPFGKFYSEDSGGYAIVEMLFSTSLLALVGIGDQPALSPRRLRIINTKKHSIICEVTFPTSILSVKMNKSRLVVLLQEQIYIYDINTMRLLHTIETNPNPRGLMAMSPSVANSYLVYPSPPKVINSEIKAHATTNNITLSVGGNTETSFKRDQQDAGHSDISDLDQYSSFTKRDDADPTSSNGGNSSIIKNGDVIVFNLETLQPTMVIEAHKGEIAAMAISFDGTLMATASDKGTIIRVFDIETGDKIYQFRRGTYATRIYSISFSEDSQYLAVTGSSKTVHIFKLGHSMSNNKLDSDDSNMEEAAADDSSLDTTSIDALSDEENPTRLAREPYVDASRKTMGRMIRYSSQKLSRRAARTLGQIFPIKVTSLLESSRHFASLKLPVETNSHVMTISSIGSPIDIDTSEYPELFETGNSASTESYHEPVMKMVPIRVVSSDGYLYNFVMDPERGGDCLILSQYSILMD
Regarding B3, the binding entry in assay [7] is “no binding”.
